Measured values taken from article PMC4336329 (PLoS ONE, 2015).
About 2,200 (0.71%) of roughly 310,000 compounds showed an effect of 50% or more. Effects have a minus sign here. The list shows a part of the results.

These compounds were tested against human ether-à-go-go-related gene (hERG) potassium channel (human, UniProt Q12809) (assay: primary screen, population patch clamp on CHO cells stably expressing hERG).
human ether-à-go-go-related gene (hERG) potassium channel, sequence (Q12809 whole entry, looked up): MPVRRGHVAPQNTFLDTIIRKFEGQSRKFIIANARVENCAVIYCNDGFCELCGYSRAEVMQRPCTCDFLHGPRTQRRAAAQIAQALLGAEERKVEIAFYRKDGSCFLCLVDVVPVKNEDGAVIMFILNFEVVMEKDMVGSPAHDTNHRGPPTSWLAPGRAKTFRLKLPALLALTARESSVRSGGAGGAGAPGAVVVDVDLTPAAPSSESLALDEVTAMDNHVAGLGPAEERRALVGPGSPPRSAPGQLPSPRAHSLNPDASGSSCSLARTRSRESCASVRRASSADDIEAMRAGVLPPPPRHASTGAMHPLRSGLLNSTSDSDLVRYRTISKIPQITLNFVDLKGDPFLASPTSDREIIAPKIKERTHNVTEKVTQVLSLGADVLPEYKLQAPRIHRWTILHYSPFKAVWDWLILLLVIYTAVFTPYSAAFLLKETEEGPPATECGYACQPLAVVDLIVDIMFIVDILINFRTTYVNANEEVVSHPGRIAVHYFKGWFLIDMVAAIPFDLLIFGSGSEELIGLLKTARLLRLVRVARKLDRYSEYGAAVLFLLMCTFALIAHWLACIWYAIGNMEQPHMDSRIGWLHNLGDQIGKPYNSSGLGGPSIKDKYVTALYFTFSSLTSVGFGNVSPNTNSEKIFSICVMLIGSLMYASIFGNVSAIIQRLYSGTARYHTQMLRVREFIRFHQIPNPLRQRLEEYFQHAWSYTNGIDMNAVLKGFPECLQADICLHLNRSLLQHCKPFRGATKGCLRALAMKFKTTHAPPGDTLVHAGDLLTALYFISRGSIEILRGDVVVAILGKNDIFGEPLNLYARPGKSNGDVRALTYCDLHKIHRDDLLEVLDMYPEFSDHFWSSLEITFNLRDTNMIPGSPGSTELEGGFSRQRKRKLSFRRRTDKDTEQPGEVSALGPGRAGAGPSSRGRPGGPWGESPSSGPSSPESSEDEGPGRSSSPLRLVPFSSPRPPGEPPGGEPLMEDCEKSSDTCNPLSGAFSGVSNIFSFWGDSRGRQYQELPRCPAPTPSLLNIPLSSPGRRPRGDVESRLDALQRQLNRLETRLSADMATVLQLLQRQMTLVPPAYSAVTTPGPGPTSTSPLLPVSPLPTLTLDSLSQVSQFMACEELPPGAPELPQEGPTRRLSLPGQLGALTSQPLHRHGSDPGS
`O=P(Oc1ccccc1)(Oc1ccccc1)N1CCN(c2ccc(F)cc2)CC1` was tested, and the “hERG current change (%, negative = inhibition) at 1uM” value was 15.3%. `CC(=O)N1CCC2(CC1)CC(=O)c1cc(OCC(=O)NCc3ccc(C)cc3)ccc1O2` was tested, and the “hERG current change (%, negative = inhibition) at 1uM” value was -8.11%. With `C/C(=N\NC(=S)NCc1ccccc1)c1ccccc1` the “hERG current change (%, negative = inhibition) at 1uM” value was 7.41%. With `O=C(Nc1ccc(S(=O)(=O)NCC2CCCO2)cc1)c1ccccc1` (stereo not drawn) the “hERG current change (%, negative = inhibition) at 1uM” value was 11.2%. With `CC(Cc1ccccc1)C(=O)N(C)Cc1ccccc1` (stereo not drawn) the “hERG current change (%, negative = inhibition) at 1uM” value was 10.2%. `CC1CCCC(C)N1C(=O)CSc1nc2c(c(=O)n(C)c(=O)n2C)n1C` (stereo not drawn) was tested, and the “hERG current change (%, negative = inhibition) at 1uM” value was 21.4%. `CCN(CC)S(=O)(=O)c1ccc(C)c(NC(=O)c2cc(C)oc2C)c1` was tested, and the “hERG current change (%, negative = inhibition) at 1uM” value was 9.88%. In the case of `Cl.N=c1c[n+](C2CCCCC2)[n-]o1`, the “hERG current change (%, negative = inhibition) at 1uM” value is reported as 8.49%. `COc1ccccc1NC(=S)N(CCc1nc2cc(C)c(C)cc2[nH]1)Cc1cccnc1` was tested, and the “hERG current change (%, negative = inhibition) at 1uM” value was 2.58%. In the case of `CCN(CC)Cc1c(C(=O)N/N=C/c2cccc3ccccc23)nnn1-c1nonc1N`, the “hERG current change (%, negative = inhibition) at 1uM” value is reported as 12.7%. With `CC1(C)Cc2c(sc(NC(=O)COc3ccc(Cl)cc3Cl)c2C(N)=O)C(C)(C)N1` the “hERG current change (%, negative = inhibition) at 1uM” value was 14.1%. With `O=C(CN1C(=O)NC2(CCCC2)C1=O)OCCOc1ccc(Cl)cc1Cl` the “hERG current change (%, negative = inhibition) at 1uM” value was 4.72%. With `O=[N+]([O-])c1ccc(N/N=C/c2cccc(O)c2O)cc1` the “hERG current change (%, negative = inhibition) at 1uM” value was 9.15%. `O=C(CNC(=O)c1sc2ccccc2c1Cl)NCc1cccc(C(F)(F)F)c1` was tested, and the “hERG current change (%, negative = inhibition) at 1uM” value was 2.56%. In the case of `CCOC(=O)C(C)c1ccc2cc(OC)ccc2c1` (stereo not drawn), the “hERG current change (%, negative = inhibition) at 1uM” value is reported as 5.65%. With `CCN1CCN(c2ccc(NC(=O)Cc3ccccc3)cc2)CC1` the “hERG current change (%, negative = inhibition) at 1uM” value was -9.29%. With `CCOc1ccc(S(=O)(=O)N2CCN(c3ncccn3)CC2)cc1` the “hERG current change (%, negative = inhibition) at 1uM” value was 15.2%. For `CC(C)=CC(=O)N1CCC(N2CCC(C(=O)NCC3CCCO3)CC2)CC1` (stereo not drawn), the “hERG current change (%, negative = inhibition) at 1uM” value was 14.9%. In the case of `COc1cc(/C=C/C(=O)O)ccc1OS(=O)(=O)c1c(C)cc(C)cc1C`, the “hERG current change (%, negative = inhibition) at 1uM” value is reported as -10.7%. For `O=C(C[N+]12CCC(CC1)C(CO)C2)c1ccc(Br)cc1.[Br-]` (stereo not drawn), the “hERG current change (%, negative = inhibition) at 1uM” value was 0.666%. For `Cc1c(NC(=S)N/N=C/c2ccc(N(C)C)cc2)c(=O)n(-c2ccccc2)n1C`, the “hERG current change (%, negative = inhibition) at 1uM” value was 18.1%. In the case of `CN(C(=O)Cc1c(C(=O)O)n(C)c2ccccc12)c1ccc(Cl)cc1`, the “hERG current change (%, negative = inhibition) at 1uM” value is reported as 15.7%. `CC(=O)Nc1ccc(OCC(=O)N2CCC(Cc3ccccc3)CC2)cc1` was tested, and the “hERG current change (%, negative = inhibition) at 1uM” value was -3.3%. In the case of `O=C(CSc1nnc2n1CCCN2)c1ccc(Cl)cc1`, the “hERG current change (%, negative = inhibition) at 1uM” value is reported as -1.26%. In the case of `CCOc1ccc2oc(C(=O)Nc3cc(C)ccn3)c(C)c2c1`, the “hERG current change (%, negative = inhibition) at 1uM” value is reported as 11.9%. In the case of `COc1ccc(NC(=O)N(CCCN2CCOCC2)Cc2cccnc2)c(OC)c1`, the “hERG current change (%, negative = inhibition) at 1uM” value is reported as 6.25%. In the case of `O=C(CCNC(=O)c1ccco1)NCCc1ccc(Cl)cc1`, the “hERG current change (%, negative = inhibition) at 1uM” value is reported as 8.43%. For `CCC1CN(C(=O)N2CCC(C(=O)NCc3cccc(F)c3)CC2)c2ccccc2O1` (stereo not drawn), the “hERG current change (%, negative = inhibition) at 1uM” value was 6.6%. For `Cc1ccc(C)c(OCC(=O)N/N=C\c2cccn2C)c1`, the “hERG current change (%, negative = inhibition) at 1uM” value was 14.7%. `CCOc1cnn(-c2ccccc2)c(=O)c1Cl` was tested, and the “hERG current change (%, negative = inhibition) at 1uM” value was 9.25%. In the case of `CN(C)CCCNC(=O)C1(O)c2cc(Br)ccc2NC(=O)N1c1ccc(Cl)cc1` (stereo not drawn), the “hERG current change (%, negative = inhibition) at 1uM” value is reported as 10.4%. `O=C1Nc2ccccc2/C1=N/N=C/c1cccc(O)c1` was tested, and the “hERG current change (%, negative = inhibition) at 1uM” value was 11.5%. For `Cc1cc2oc(=O)cc(COC(=O)c3n[nH]c4ccccc34)c2cc1C`, the “hERG current change (%, negative = inhibition) at 1uM” value was 7.84%. With `O=C(COc1ccc(Br)cc1Cl)NC(=O)NC1CCCC1` the “hERG current change (%, negative = inhibition) at 1uM” value was 10.2%. In the case of `COc1ccc(OC)c(S(=O)(=O)N2CCC(C(=O)NCc3ccccc3OC)CC2)c1`, the “hERG current change (%, negative = inhibition) at 1uM” value is reported as 3.09%. `O=C(NC1CC1)c1cc2c(s1)-c1ccccc1OC2` was tested, and the “hERG current change (%, negative = inhibition) at 1uM” value was 10.2%. For `COC(=O)C(CSCc1ccccc1)NC(=O)CSc1nc(N)cc(=O)[nH]1` (stereo not drawn), the “hERG current change (%, negative = inhibition) at 1uM” value was 20.8%. With `Cc1cc(C)c2[nH]c(=O)c(C(c3nnnn3Cc3ccc4c(c3)OCO4)N3CCCCC3)cc2c1` (stereo not drawn) the “hERG current change (%, negative = inhibition) at 1uM” value was 17.4%. With `CC1CN(c2nc3c(c(=O)n(Cc4ccc(Cl)cc4)c(=O)n3C)n2C)CC(C)O1` (stereo not drawn) the “hERG current change (%, negative = inhibition) at 1uM” value was -0.562%. In the case of `CCOC(=O)c1ccc(NC(=S)N2CCSC2c2ccc(Br)cc2)cc1` (stereo not drawn), the “hERG current change (%, negative = inhibition) at 1uM” value is reported as 12.7%. `CSc1sc(C(=O)N2CCCCC2)c(-c2cccs2)c1C#N` was tested, and the “hERG current change (%, negative = inhibition) at 1uM” value was 7.03%. In the case of `O=[N+]([O-])c1cccnc1N1CCC(c2cc(-c3ccc(Cl)cc3Cl)n[nH]2)CC1`, the “hERG current change (%, negative = inhibition) at 1uM” value is reported as -5.66%. With `Cc1cc(C)c(S(=O)(=O)O)c(C)n1` the “hERG current change (%, negative = inhibition) at 1uM” value was 10.9%. For `CNC(=O)CSc1nnc(COc2ccc(Cl)cc2)n1CCOC`, the “hERG current change (%, negative = inhibition) at 1uM” value was 2.07%. For `COc1ccc(Nc2ncnc3sccc23)c(OC)c1`, the “hERG current change (%, negative = inhibition) at 1uM” value was 21%. `COC(=O)c1ccc(O)c(Sc2cc(C(=O)OC)ccc2O)c1` was tested, and the “hERG current change (%, negative = inhibition) at 1uM” value was 16.3%. For `CCOC(=O)c1c(C)nc2ccccc2c1C.Cl`, the “hERG current change (%, negative = inhibition) at 1uM” value was 1.33%. For `Cc1ccc(C)c(OCC(=O)Nc2ccc3c(c2)OCO3)c1C`, the “hERG current change (%, negative = inhibition) at 1uM” value was -2.9%. `CCOc1ccc2[nH]cc(C(=O)O)c(=O)c2c1` was tested, and the “hERG current change (%, negative = inhibition) at 1uM” value was 6.23%. For `COc1ccccc1N1CCN(C(c2ccccc2)c2nnnn2CCc2ccccc2)CC1.Cl` (stereo not drawn), the “hERG current change (%, negative = inhibition) at 1uM” value was 14.8%. `O=C(Nc1ccc(Cl)cn1)c1cc2c(s1)-c1ccccc1OC2` was tested, and the “hERG current change (%, negative = inhibition) at 1uM” value was 11.1%. In the case of `COc1ccc(C2C(C(=O)Nc3cc(C)on3)c3ccccc3C(=O)N2C)cc1OC` (stereo not drawn), the “hERG current change (%, negative = inhibition) at 1uM” value is reported as 5.64%. With `CN1CCN(c2ccc(S(=O)(=O)N3CCCCC3)cc2NC(=O)c2ccc(C#N)cc2)CC1` the “hERG current change (%, negative = inhibition) at 1uM” value was 2.16%. In the case of `NC(=O)CCCc1nc(-c2ccccc2Cl)no1`, the “hERG current change (%, negative = inhibition) at 1uM” value is reported as 3.84%. With `CN(Cc1cccnc1)Cc1cn(C)nc1-c1ccc(Oc2ccccc2)cc1` the “hERG current change (%, negative = inhibition) at 1uM” value was -0.121%. In the case of `Cc1ccc(C)c(NC(=O)/C(C#N)=C/c2ccc(Sc3nncn3C)c([N+](=O)[O-])c2)c1`, the “hERG current change (%, negative = inhibition) at 1uM” value is reported as 6.51%. In the case of `COc1ccc(-c2nnc(Nc3nc4c(OC)cccc4s3)o2)c(OC)c1`, the “hERG current change (%, negative = inhibition) at 1uM” value is reported as 11.4%.
